# According to the supplement of paper PMC12632987:
# Whole data set: some 4,500 sequences, median “median log2 fold change of GCK-ALFA target abundance (FLAG IP / Myc IP barcode read proportion)” near 0.078, cut for the lowest 2% near -0.6. Some of the results follow.
# B1: GBRAP_160_4079 (protein)
# chain: SELTEKTKEEIKELIEEAYEFMIESNQEERIAIARVMAGDILMEVLENPKVSDEAEEKIDEILDETVEKIEKTKGISDEELKELLEKLAEEISKILDEEE
# B2: GBRAP_139_3707 (protein)
# chain: SALEELIAEARRLTREMREDPEAALEALVELLLSVSEEELEVLVEAIAEELSRLPLDEAEELADRLLELVEERFKDEDKIDIVEAVLNGALARKAAEEEA
# B3: GBRAP_11_2700 (protein)
# chain: KKEQLKEARELAEKLAEVLDKLIKEGPDNEELLKEAEELLKKIEELTKKYGDEGAKKLTEIIKELWEEAKKDKENQVQYLKEARAAARVLAGQFLLEIEE
# B4: GBRAP_52_6195 (protein)
# chain: MRERMRKLAQEIVELVKAGKREEARKMMRELARTLSEEELRLLGEEFAEIAREARPEDFDAVFEAAEMMADVLEEEGHDEVLADDLLARVAAALYERELA
# B5: GBRAP_52_5897 (protein)
# chain: ATERLVRLLLEAAELVAAGDEEGAKEKIREAIKEGAKLTEEEVRAAIARAAERLAGLPQEVLERLLELVLEVYDEDDDLTDEERAVLGDIAAALARLILA
# B6: GBRAP_125_3010 (protein)
# chain: GMAEVAAALGRIAAALGFSPEDVAELEELARKHGLKGTFYALLLALGQEELADLVEQLTEEQVAEVVLEVAAELEANPDLTPEEVVALIREVLERALAKQ
# B7: GBRAP_95_7047 (protein)
# chain: EDLELALESTQEVLQTYLDLGNEEQAERAAERAVELAVEGGILPFSSSLSEEALLLIARAAARRLDEETVAALVEALVAAAGDEAVRERLEAVVAEVRAE
# B8: GBRAP_57_6440 (protein)
# chain: MSRVEKAKKLAEEIKKALEEGAPKEEILELFRKLLELLSRESLLDVALLVDPSTREDASREELIERLLELFERALEEEGKEKALEIVDLVEGEIEMEESE
# B9: GBRAP_160_4023 (protein)
# chain: SESVKKIIEDFKKEVELILENAKEMDEKTIAGALRTAVGQAIMDMSEDPNMKDATREEVDELDKLAEETAKILSKGDEEEAKKAAEELLKKVAKVVEKAA
# B10: GBRAP_95_7036 (protein)
# chain: EDDQLALESAIEVAITLADLGDAEAAARAALEALRLLREGGVIPIDPELARELIRVLREVLVDVLPAEEVAELLEAIREAAEDPEVRAEAEEALAEVRAR
# B11: GBRAP_160_4590 (protein)
# chain: SEALEKMKKIVDEELEEAKEMIEGETAEQRATIIAGAGGEIIWELSEDPTASDELLDKVDEIIDEAVDTVLANPDLTLEEVKELIDEAREKIKEAIKESF
# B12: GBRAP_184_5218 (protein)
# chain: ATVRRAVEATTAEEAIAKADAVVAEAAAAGETLELVVILRDMSLEEIEEVMAHLAALRDAGRVADATVVVEDPVSEEELDRLVALADRYGVRLVAALKDE
# B13: GBRAP_128_3507 (protein)
# chain: SMEEAVEKVKKLMEEIKKADPETARKLTEEIVELLNSVSDETAEAMVEVILKELPKLSKEKLDVLADTLRENRPKVSPEKANLLAEIEVEALNEALEQEE
# B14: GBRAP_128_3355 (protein)
# chain: LNEEFLEEVKKTVEAMKTADVETVYKLTKELVEKISKASKEEQEAAFEILKEALPKFDAEKLEAIADAIEEQLPKLDPYTANLAADVLVEALNLAEEKEE
# B15: GBRAP_160_4315 (protein)
# chain: KEEYEALKKEIKEIFEEAKELIKGQTPEERKTIVRVALGDVLLLADENPAISDELEDQIAAIADEAEATVDANPNLTEEEVKALLEEAEKKILALIEKEA
# B16: GBRAP_52_5886 (protein)
# chain: KLEEAVKLLKEMIKAVKAGKEEEAKKLAKEIVENFDEDTIVEAVERVAEELKDKSLEEAEAFWKAAELLAKELLKKGGSEEIASYIEAIAGATLYEVSQK
# B17: GBRAP_150_3905 (protein)
# chain: DLETLLDIVDTAIDIAEAILDGEFDLLPHLLKLAKAAVDEAKDIDEELLKIAEEALAHVEAALKLLKEGGDEADIKAEVQEALALLEKLRELIEKKIEEE
# B18: GBRAP_128_3585 (protein)
# chain: SVEAVRAETRALMEAMTRADDAEAAALARELAARLTTLSLEEAEAAAEVIREELPRLSARHLEILADALEAARPQMTPEKAELAADVQVEALNEAVEKEE
# B19: GBRAP_160_3985 (protein)
# chain: EERLEELKEYIDEEFEEAKKMIEGETHEERVTIVRGYFGEIIMELSEDENVSEEAEEKIAKIGDETVKTIESNPDLTEEEIKKLIEEARDKIKEVLEEDY
# B20: GBRAP_128_3414 (protein)
# chain: STEEIVAKARELLEAMLTAGPEEQKKLAEELAELIKESDLETAEAIAEVILEMLPKFTAEQLDILADALRKHRGELTPEKQELVAEVIVEALNRREELEE
# B21: GBRAP_128_3522 (protein)
# chain: SIEEAIKEAKEVMEKIKNSSVEEAYEIAKEWLEKLKEWSLEEVEAAVDVMKELLPELSAEKLEAVADAIEEQRDKFSPEVARLLADLEVEALNEAEELEE
# B22: GBRAP_184_5187 (protein)
# chain: MVVEEELEIEDVAEARAKIAAIGERIAGKKAKLRVIVKAKKITVEIARTIMEGLGAIKAAGNATDITVELVGEMSEEVIDTAVELAKKAGIRVVIAMSEE
# B23: GBRAP_166_4939 (protein)
# chain: SIEEMIEELREKIEEAVEEFPSLTPEERLERAMEIGEMVRELREAGASDEEILELLKEFAKLLLEAGLDAKRLVSAVILMAELDEELEEKVWDEIDKLEK
# B24: GBRAP_160_4457 (protein)
# chain: DELREKLIKEVDETRDETLELIEGESHEQRVVIVEGEFGSLLLDFASDERVSDELEDEIAKIIDDLVAYLRAHPDLTEEEIKALIDEAAEEIKKAIEKHL
# B25: GBRAP_42_5721 (protein)
# chain: LYEVNVEIYVETVEEAEEAAEIVEKRNEEYKKKYGIIINLTIVGPEEVKELAEEINKKFEEKAKEADKSLDWVVVAGNAERVEEAIDAAVDLGLEEKKEE
# B26: GBRAP_128_3190 (protein)
# chain: SVEEVKKYTKEMMEKIKNSNEEEARKIAEELMEKLKTLSLEEVEAAVEVVLEMLPELSEEHLKILADVTREKRPEFTPEKANLVAEVEVEALNLLVEKEE
# B27: GBRAP_128_3230 (protein)
# chain: MSPELRAKVDALIKTIVEGDVAEAAAATAELVALMGEVSLEEAEEIAERLIAAIPKLTAEKLDAVADTLRENRGTLSPEKAALAAEVEIEALEQAEELEE
# B28: GBRAP_84_6999 (protein)
# chain: STDEEIIELAKEIFDRVKGEAAVKILALVLLKVTGETATRILNYALERDPQVAYDALSLAYEVVSEDKEEELEEEARRLMAEESPEVRAKFERLLELMKA
# B29: GBRAP_48_5816 (protein)
# chain: MEFDEEKLKKLVEETVEEIYELYEEAKKAGLSDEEILKLIKAELGDLALELEEAGFEKAADYLLEPKNREELAKKLYEFFKEGKKEEAKEYLFNKLKAAE
# Molecular target: GABARAP, O95166
# Sequence (O95166 whole entry, the tested form may be a part): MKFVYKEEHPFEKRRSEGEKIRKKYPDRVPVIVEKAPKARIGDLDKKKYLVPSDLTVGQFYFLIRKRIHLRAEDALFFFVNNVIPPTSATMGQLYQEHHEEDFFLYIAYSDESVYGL
# Assay: median log2 fold change of GCK-ALFA target abundance (FLAG IP / Myc IP barcode read proportion) (log2 ratio); each designed protein is fused to an ALFA-tag nanobody in HEK293 cells to bring the named protein to FLAG-tagged glucokinase (GCK); Myc marks an untargeted standard; higher = target protein stabilised (more abundant)
# Conditions: target protein: 3xFLAG-MCP-GCK-ALFA reporter; HEK293 landing pad (RPLP)
# How it was run: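 Binders fused to an ALFA nanobody were recombined as a library into HEK293 landing-pad cells, which were induced with 2 μg mL^−1 doxycycline and then transfected to express a FLAG-tagged target and a Myc-tagged standard. After 48 h, circular RNA barcodes recovered by anti-FLAG and anti-Myc immunoprecipitation of lysates were reverse transcribed, amplified and sequenced. Each binder's target abundance is the median log2 ratio of FLAG to Myc barcode read proportions, from barcodes present at ≥10^−7 in both replicates, binders carrying ≥3 barcodes per replicate, a 10^−6 pseudocount and pooled replicates.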
row,Binder,median log2 fold change
1,B1,-0.112
2,B2,-0.0884
3,B3,0.12
4,B4,-0.0573
5,B5,-0.588
6,B6,-0.0499
7,B7,0.318
8,B8,0.179
9,B9,0.203
10,B10,-0.00145
11,B11,-0.188
12,B12,-0.0314
13,B13,0.0346
14,B14,0.117
15,B15,-0.453
16,B16,0.12
17,B17,-0.0402
18,B18,0.117
19,B19,0.139
20,B20,0.341
21,B21,0.186
22,B22,0.57
23,B23,0.209
24,B24,0.0207
25,B25,0.117
26,B26,0.167
27,B27,0.179
28,B28,-0.601
29,B29,0.16
